Results published in the RNAGym collection of RNA variant scans (doi:10.7554/elife.90254).
The source gives no read counts; variants with many changes may rest on few reads.

B1: OR4K15 (parent)
chain: GUUAACGGUCAUAGGCCAUGGAAACUAGGAGCACCAUUUCGCUGCCAGUGAAGAAAUGAACAAAGAAAAUCUGGGCCAGGCAGGCAUCAAAAGAAAUAGUCUUGCGCUCAACCAGAAAGUCUGUAAUCAUUUUAAGGGUA

Variants of: B1
Assay: self-cleavage, relative activity (ratio to wild type); higher = more cleavage; in vitro, sequencing; the parent is a self-cleaving ribozyme
Work on GUUAACGGUCAUAGGCCAUGGAAACUAGGAGCACCAUUUCGCUGCCAGUAGAGAAAUGAACUAAGAGAAUCUGGGCCAGGCAGGCAUCAAAAGAAAUAGUCUUGCGCUCAACCAGAAAGUCUGUAAUCAUUUUAAGGGUA yielded a self-cleavage of 0.58.
GUUAACGGUCAUAGGCCAUGGAAACUAGGAGCACCAUUUCGCUGCCAGUUAAGAAAUGAACAAAGAAAAUCUGGGCCAGGCAGGCAUCAAAAGAAAUAGUCUUGCGCUCAACCAGGAAGUCCGUAAUCAUUUUAAGGGUA showed a self-cleavage of 0.7.
In the case of GUUAACGGUCAUAGGCCAUGGAAACUAGGAGCACCAUUUCGCUGCCAGUGGAGUAAUGAACAAAGAGAAUCUGGGCCAGGCAGGCAUCAAAAGAAAUAGUCUAGCGCUCAGCCAGAAAGUCUGUAAUCAUUUUAAGGGUA, the self-cleavage is reported as 0.02.
In the case of GUUAACGGUCAUAGGCCAUGGAAACUAGGAGCACCAUUUCGCUGCCAGGGAAGAAAUGAACAAAGAAAAUCUGGGCCAGGCAGGCAUCAAAAGAGAUAGUCUUGCGCUCAACCAGAAAGUCUGUAAUCAUUUCAAGGGUA, the self-cleavage is reported as 1.43.
GUUAACGGUCAUAGGCCAUGGAAACUAGGAGCACCAUUUCGCUGCCAGCGAAGAAAUGAACAAAGAAAAUCUGGGCCAGGCAGGCAUCAAAAGAAAUAGUCCCGCGCUCAACCAGAAAGUCUGUAAUCAUUUUAAGGGUA showed a self-cleavage of 0.06.
Variant GUUAACGGUCAUAGGCCAUGGAAACUAGGAGCACCAUUUCGCUGCCAGUAAAGAAAUGAACGAAGAAAAUCUGGGCCAGGCAGUCAUCAAAAGAAAUAGUCUUGCGCUCAACCAGAAAGUCUGCAAUCAUUUUAAGGGUA has a self-cleavage of 0.27.
GUUAACGGUCAUAGGCCAUGGAAACUAGGAGCACCAUUUCGCUGCCAGUAUAGAAAUGAACAAAGAAAAUCCGGGCCAGGCAGGCAUCAAAAGAAGUAGUCUGGCGCUCGACCAGAAGGUCUGUAAUCAUUUUAAGGGUA showed a self-cleavage of 0.03.
GUUAACGGUCAUAGGCCAUGGAAACUAGGAGCACCAUUUCGCUGCCAGUGCAGAAAUGAACAAAGAAAAUCUGGGCCAGGCAGGCAUCGAGGGAAAUAGUCUUGCGCUCAACCAGAAAGUCUGUAAUCAUUUUAAGGGUA gave a self-cleavage of 0.48.
For GUUAACGGUCAUAGGCCAUGGAAACUAGGAGCACCAUUUCGCUGCCAGUGGAGAGAUGAACAAAGAAAAUCUGGGCCAGGCAGGCAUCAAAAGAAAUAGUCUUGCGCUCAACCAGAAAGUCUGUAAUCAUUUUAAGGGAA, the self-cleavage was 0.49.
GUUAACGGUCAUAGGCCAUGGAAACUAGGAGCACCAUUUCGCUGCCAGUGGAGAAGUGAACAAAGAAAAUCUGGGCCAGGCAGGCAUCAAAAGAAAUAGUCUUGCGCUCAACGAGAAAGUCUGUAGUCAUUUUAAGGGUA showed a self-cleavage of 0.01.
Variant GUUAACGGUCAUAGGCCAUGGAAACUAGGAGCACCAUUUCGCUGCCAGGGAAGAAAUGAACAAAGAAGAUCUGGGCCAGGCAGGCAUCAGAAGAAAUAGUCUUGCGCUCAACCAGAAAGUCUGUAAUCAUUUUAAGGGUG has a self-cleavage of 1.21.
Work on GUUAACGGUCAUAGGCCAUGGAAACUAGGAGCACCAUUUCGCUGCCAGUGGAGAUAUGAACAAAGAAAAUCUGGGCCAGGCAGGCAUCAAAAGAAAUGGUCUUGCGCUCAACCAGAAAGUCUGUAAUCAUUUUAAGGGUA yielded a self-cleavage of 0.63.
GUUAACGGUCAUAGGCCAUGGAAACUAGGAGCACCAUUUCGCUGCCAGGGAAGAAAUGAGCAAAGAAAAUCUGGGCCAGGCAGGCAUCAAAAGAAAUAGUCUUGCGCCCAACCAGAAAGUCUGUAAUCAUUUUAAGGGUA gave a self-cleavage of 0.05.
GUUAACGGUCAUAGGCCAUGGAAACUAGGAGCACCAUUUCGCUGCCAGGGAAGAAGUGGACAAAGAGAAUCUGGGCCAGGCAGGCAUCAAAAGAAGUAGUCCUGCGCUCAACCAGAAAGCCUGUAAUCAUUUUAAGGGUA gave a self-cleavage of 0.78.
Work on GUUAACGGUCAUAGGCCAUGGAAACUAGGAGCACCAUUUCGCUGCCAGUGGAGAGAUGAACAAAGAAAAUCUGGGCCAGGCAGGCAUCAAAAGAAAUAGUCUCGCGCUCGACCAGAAAGUCUGUAAUCAUUUUAAGGGUA yielded a self-cleavage of 0.04.
Work on GUUAACGGUCAUAGGCCAUGGAAACUAGGAGCACCAUUUCGCUGCCAGUGGAGAGAUGAGCAAAGAAAACCUGGGCCAGGCAGGCAUCAAAAGAACUAGUCUUGCGCUCAACCAGAAAGUCUGUAAUCAUUUUAAGGGUA yielded a self-cleavage of 0.24.
GUUAACGGUCAUAGGCCAUGGAAACUAGGAGCACCAUUUCGCUGCCAGCGAAGAAAUGAACAAAGAAAAUCUGGGCCAGGCAGGCAUCAAAAGAAAUAGUCAUGCGCUCAUCCAGAAAGUCUGUAAUCAUUUUAAGGGUA gave a self-cleavage of 0.14.
GUUAACGGUCAUAGGCCAUGGAAACUAGGAGCACCAUUUCGCUGCCAGUGGAGGAAUGAACAAAGUAAAUCUGGGCCAGGCGGGCAUCUAAAGAAAUAGUCUUGCGCUCAACCAGAAAGUCUGUAAUCAUUUUAAGGGUA showed a self-cleavage of 0.47.
Variant GUUAACGGUCAUAGGCCAUGGAAACUAGGAGCACCAUUUCGCUGCCAGCGAAGAAAUGAACAAAGAAAAUCUGGGCCAGGCAGGCACCAAAAGAAAUAGUCUUGCGCUCAACCAGUAAGUCUGUAAUCAUUUUAAGGGUA has a self-cleavage of 0.17.
Work on GUUAACGGUCAUAGGCCAUGGAAACUAGGAGCACCAUUUCGCUGCCAGUAAAGAAAUGGACAAAGAAGAUCUGGGCCAGGCAGGCAUCAAAAGAAAUAGUCUUGCGCUCAACCAGAAAGUCUGUAAUCAUUUUAAGGGUA yielded a self-cleavage of 1.08.
GUUAACGGUCAUAGGCCAUGGAAACUAGGAGCACCAUUUCGCUGCCAGUGGAGUAAUGAACAAAGAAAAUCUGGGCCAGGCAGGCAUCAGAAGAAAUAGUCUUGCGCUCAACCAGAAAGUCUGUAAUCAUUUUAAGGGUA showed a self-cleavage of 1.93.
Variant GUUAACGGUCAUAGGCCAUGGAAACUAGGAGCACCAUUUCGCUGCCAGUGGAGAGAUGAACAAAGAAAAUCUGGGCCAGGCAGGCAUCAAAGGGAAUAGUCCUGCGCUCAACCUGAAGGUCUGUAAUCAUUUUAAGGGUA has a self-cleavage of 0.01.
For GUUAACGGUCAUAGGCCAUGGAAACUAGGAGCACCAUUUCGCUGCCAGUGGAGAAGUGAACAAAGAAAAUCUGGGCCAGGCAGGCAUCAAAAGAAAUAGUCUUGCGCUCAACCAGAAAGUCUGUAACCAUUUUAAGGGUA, the self-cleavage was 0.7.
GUUAACGGUCAUAGGCCAUGGAAACUAGGAGCACCAUUUCGCUGCCAGGGAAGUAAUGAACAAAGAAAAUCUGGGCCAGGCAGGCAUCAAAAGAAAUAGUGUUGCGCUCAACCAGAAAGUCUGUAAUCAUUUUAAGGGUA showed a self-cleavage of 0.06.
Work on GUUAACGGUCAUAGGCCAUGGAAACUAGGAGCACCAUUUCGCUGCCAGGGAAGAAAUGAACAAAGAAAAUCUGGGCCAGGCAGGCAUCAAAAGAAAUAGUCUUGCGCUCAACCAGGCAGUCUGUAAUCAUUUUAAGGGUA yielded a self-cleavage of 0.04.
GUUAACGGUCAUAGGCCAUGGAAACUAGGAGCACCAUUUCGCUGCCAGUGGUGAAAUGAACAAAGAAAAUCUGGGCCAGGCAGGCAUCAAAAGAAAUAGUCUUGCGCUCAACCAGAAAGUCUGUAAUCAUUUUAGGGGUA gave a self-cleavage of 0.52.
Work on GUUAACGGUCAUAGGCCAUGGAAACUAGGAGCACCAUUUCGCUGCCAGUGGAGAGAUGAACAAAGAAAAUCUGGGCCAGGCAGGCAUCAGAAGAAAUAGUCUUGCGCUCGACCAGGAAGUCUGUAAUCAUUGUAAGGGUA yielded a self-cleavage of 0.
In the case of GUUAACGGUCAUAGGCCAUGGAAACUAGGAGCACCAUUUCGCUGCCAGUGGGGAAAUGAACAAAGAAAAUCUGGGCCAGGCAGGCAUCAGAAGAAAUAGUCUUGCGCUCAACCAGAAAGUCUGUAAUCAUUUUAAGGGUA, the self-cleavage is reported as 0.81.
In the case of GUUAACGGUCAUAGGCCAUGGAAACUAGGAGCACCAUUUCGCUGCCAGCGAAGAAAUGAACAAAGAAAAUCUGGGCCAGGCAGGCAUCAAAAGAAAUAGUCCUGCGCUCAACCAGAAAGUCUGUAAUCAUUUUAAGUGUA, the self-cleavage is reported as 1.64.
For GUUAACGGUCAUAGGCCAUGGAAACUAGGAGCACCAUUUCGCUGCCAGGGAAGAAACGAACAAAGAAAAUCUGGGCCAGGCAGGCAUCAAAAAAAAUAGUCUUGCGCUCAACCAGAAAGUCUGUAAUCAUUUUAAGGGUA, the self-cleavage was 0.57.
Work on GUUAACGGUCAUAGGCCAUGGAAACUAGGAGCACCAUUUCGCUGCCAGUUAAGAGAUGAACAAAGAAAAUCUGGGCCAGGCAGGCAUCAAAAGAAAUAGUCUUGCACUCAACCAGAGAGUCUGUAAUCAUUUUAAGGGUA yielded a self-cleavage of 0.01.
With GUUAACGGUCAUAGGCCAUGGAAACUAGGAGCACCAUUUCGCUGCCAGUGGAGGAAUGAACAAAGAAAAUCUGGGCCAGGCAGGCAUCAAAGGAAAUAGUCUUGCGCUCAACCAGAAAGUCUGUAAUCAUUUUAAGGGUA the self-cleavage was 0.98.
In the case of GUUAACGGUCAUAGGCCAUGGAAACUAGGAGCACCAUUUCGCUGCCAGUGGAGAAAUGCACAAAGAAAAUCUGGGCCAGGCAGGCAUCAAAAGAGAUAGUCUUGCGCUCAACCAGAAAGUCUGUAAUCAUUUUAAGGGUA, the self-cleavage is reported as 1.88.
Work on GUUAACGGUCAUAGGCCAUGGAAACUAGGAGCACCAUUUCGCUGCCAGUGGAGAGAUGAACAAGGAAAAUCUGGGGCAGGCAGGCAUCAAAAGAAAUAGUCUUGCGCUCAACCAGAAAGUCUGUAGUCAUUUUAAGGGUA yielded a self-cleavage of 0.03.
Variant GUUAACGGUCAUAGGCCAUGGAAACUAGGAGCACCAUUUCGCUGCCAGCGAAGAAAUGAACAAAGAAAAUCUGGGCCAGGCAGGCAUCAAAAGAAAUAGUCCUGCGCUCAACCAGAAUGUCUGUAGUCAUUUUAAGGGUA has a self-cleavage of 0.8.
In the case of GUUAACGGUCAUAGGCCAUGGAAACUAGGAGCACCAUUUCGCUGCCAGGGAAGAAAUGAACGAAGAAAAUCUGGGCCUGGCAGGCAUCAAAAGAAAUAGUCUUGCGCUCAACCAGAAAGUCUGUAAUCAUUUUAAGGGUA, the self-cleavage is reported as 0.14.
In the case of GUUAACGGUCAUAGGCCAUGGAAACUAGGAGCACCAUUUCGCUGCCAGUGGGGAAAUGAACAAAGAAAAUCUGGGCCAGGCAGGCAUCAAAAGAAAUAGUCUUGCGCUCAGCCAGAAAGUCUGUAAUCAUUUUAAGGGUA, the self-cleavage is reported as 0.01.
In the case of GUUAACGGUCAUAGGCCAUGGAAACUAGGAGCACCAUUUCGCUGCCAGUGGAGGAAUGAACAAAGAAAAUCUGGGCCAGGCAGGCUUCAAAAGAAAUAGUCUUGCGCUCAACCAGAAGGUCUGUAAUCAUUUUAAGGGUA, the self-cleavage is reported as 1.3.
With GUUAACGGUCAUAGGCCAUGGAAACUAGGAGCACCAUUUCGCUGCCAGUGGGGAAAUGAACAAAGAAAGUCUGGGCCAGGCAGGCAUCAAAAGAAAUAGUCUUGCGCUCAACCAGAAAGUCUGUAAUCAUUUUAAGGGUA the self-cleavage was 0.98.
GUUAACGGUCAUAGGCCAUGGAAACUAGGAGCACCAUUUCGCUGCCAGUUAAGAAGUGAACAAAGAAAAUCUGGGCCAGGCAGGCACCAAAAGAAAUAGUCUUGCGCUCAACCAGAAAGUCUGUGAUCACUUUAAGGGUA gave a self-cleavage of 0.76.
GUUAACGGUCAUAGGCCAUGGAAACUAGGAGCACCAUUUCGCUGCCAGUGGAGAAGUGAACAAAGAAAAUCUGGGCCAGGCAGGCAUCAAAAGAAAUAGUCUUGCGCUCAACCAGAAAGUCUGUAAUCUUUUUAAGGGUA showed a self-cleavage of 1.51.
